Data taken from the supplement of paper PMC10126150.
Sequences with one replicate were seen in a single cluster, so their values are uncertain.

Test system: ATP
Assay: switch fluorescence ratio, 500 uM ATP over buffer (Cy3 cluster intensity, sum of 5 cycles each) (fold (ratio)); higher = stronger signal-on switching upon ATP binding; sequences stand for … in TCGTCGGCAGCGTCAGATGTGTATAAGAGACAGTTTTTTTTTTTTTTTTTTTTTTTTT…TC
Details: aptamer strand: ATP DNA aptamer (quencher-CACCTGGGGGAGTATTGCGGAGGAAGG + anchor), 100 nM annealed; ATP concentration: 500 uM; one replicate
Method in brief: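 Imaging in selection buffer was followed by imaging after 15 min with 500 uM ATP at 22 °C, for Cy3-labelled switching-strand clusters annealed to 100 nM quencher-labelled ATP aptamer on a modified Illumina MiSeq flow-cell. Five of these buffer/ATP cycles ran, separated by NaOH stripping and re-annealing. The fluorescence ratio per cluster is summed target-cycle over summed buffer-cycle Cy3 intensity, averaged per switch-domain sequence; clusters outside 100-1000 RFU were removed.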
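Also: ATP exposure 15 min at 22 °C before imaging.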

Row | Sequence | switch fluorescence ratio
1 | CTCTTAAATA | 1.14
2 | AGAACCCGTT | 1.01
3 | TGTTTGTCCT | 1.01
4 | TAAGAGTGGG | 0.965
5 | AATCATCAGG | 1.04
6 | TTATAATG | 0.991
7 | CTTCTCGTCC | 1.04
8 | AGTCTGTGAA | 1.05
9 | TAAGGCTCGC | 1.03
10 | CGCTTCTCAA | 1.17
11 | AGGCCCAGAA | 0.984
12 | GATCTTAATC | 0.94
13 | CCATGCGTTC | 1.12
14 | GCCCCTCTTG | 1.03
15 | ACCTGCCCAC | 1.16
16 | TATGAGTTGA | 1.02
17 | AGCTCTATAT | 1.05
18 | GGTCACCC | 0.998
19 | CTTGCGTCTG | 1.03
20 | CTAATTGAA | 0.978
21 | GACCCCTTGT | 1.04
22 | AATTGTGTCA | 1

Row | Sequence | switch fluorescence ratio
23 | GTAGAGCATT | 0.998
24 | CTCTGATGAG | 1.01
25 | AAGTGTTACA | 1
26 | GGGGAGCTTT | 0.969
27 | GCAAATGAAG | 1.01
28 | TCCCATCCCG | 1.02
29 | TGAAGGTGTA | 1.05
30 | CCTTGTGAAC | 1.08
31 | GAAACCGGAA | 1.72
32 | AGATGAATAT | 0.996
33 | GGGATATTTC | 0.976
34 | GGGCGAAGAT | 1
35 | TTCGTCGCCC | 1.01
36 | TGCGGAGTTC | 1.02
37 | TTGGCCTAGC | 1.01
38 | CTTGGTGATC | 1.05
39 | GTTCGGGCCG | 1.06
40 | CGATTTATTT | 0.924
41 | ACACTACCGC | 1.17
42 | AGCTTGCTGC | 0.976
43 | TGATTAGCGA | 0.993
44 | CACAACAGCA | 1.02

Row | Sequence | switch fluorescence ratio
45 | TCGCATGATC | 1.59
46 | ATTGGATTCT | 0.962
47 | TTGTACTGGG | 0.973
48 | TCTCTTTCTT | 1.05
49 | ACTACATTAT | 1.05
50 | GGTAAGCCGG | 1
51 | ATATACTTGG | 1.05
52 | TCTATACGAC | 1.28
53 | AAGGAGCATT | 1.03
54 | CGTCGTAAGA | 1.06
55 | CTAGCCGGG | 1.11
56 | CGCGCGTTCA | 0.967
57 | GTAGCCAT | 1.09
58 | GCCAACACGT | 1.02
59 | TACCGTTAGT | 1.04
60 | CGTGGAAGG | 1.05
61 | CCAGGAGGCA | 1.07
62 | CTCGTCATGT | 1.01
63 | CATCCCGGCC | 1.28
64 | GTTATCGGGA | 0.965
65 | GAGGGGCGA | 1.02
66 | TTAGTTGATG | 0.991

Row | Sequence | switch fluorescence ratio
67 | CCGACAAGTA | 4.59
68 | TGCTTTGTCG | 1.02
69 | TAGGAGCAGT | 1
70 | GTGGCGCGTG | 0.959
71 | CTGGGCCCTG | 1.03
72 | GCCTGACGAT | 2.44
73 | AGTTATATAA | 1.01
74 | TGTGTAAAGC | 1.06
75 | GGGTCACGGC | 0.998
76 | ACACAGCGAC | 1.98
77 | GGTAAAGCGC | 0.961
78 | AAAGGGAGCT | 1.04
79 | GGGCATCGCT | 1.02
80 | CACACCCGGG | 1.06
81 | CCACGTTCCA | 1.02
82 | TGCCCATACA | 1.02
83 | GGTCCAACA | 1
84 | GTGCGATACC | 2.7
85 | AAGAAGTGGA | 0.965
